Data taken from the RNAGym collection of RNA variant scans (doi:10.7554/elife.90254).
The source gives no read counts; variants with many changes may rest on few reads.

B1: LINE1-full (parent)
chain: UACGUAGGUGGUUUUCCCCUGAUAGUGCUAAGGGGGCCUGGAAGUUUGGACUGGGCAGAGCUCAACACAGCGUGGCAAAGUGGCUGUGGCUAGACUGCCUCUCUGGAUUCCUCGUCACUCAGCAGGGCAUCUCUGAGAGAAAUGCC

Variants of: B1
Experiment: self-cleavage, relative activity (ratio to wild type); higher = more cleavage; in vitro, sequencing; the parent is a self-cleaving ribozyme
With UACGUGAGUGGUUUUCCCCUGAUAGUGCUUAGGGGGCCUGGAAGUCUGGACCGGGCAGAGCUCAACACAGCGUGGCAAAGUGGCUGUGGCUAGACUGCCUCUAUGGAUUCCUCGUCACUCAGCAGGGCAUCCCUGAGAGAAAUGCC the self-cleavage was 0.92. UACGUAGGCGGUUCUCCCCUGAUAGUGCUAAGGGGGCCUGGAAGUUUGGACUGGGCAGAGCUCAACACAGCGUGGCAAAGUGGCUGUGGCUAGACUGCCUCUCUGGACUCCUCGUCACUCAGCAGGGCAUCUCUGAGAGAAGUGCC gave a self-cleavage of 0.8. UACGUAGGUGGUUUUCCCCUGAUAGUGCUAAGGGGGCCCGGAAGUUCGGACUGGGCAGAGCUCAACACAGCGUGGUAAAGUGGCUGUGGCUAGACUGCCUCUCCGGAUUCCUCGUCACUCAGCAGGGCGCCUCUGAGAGAAAUGCC showed a self-cleavage of 1.67. With UACGUAGGUGGUUUUCCCCUGAUUGUGCUAAGGGGGCCUGGAAGUUUGGGCUGGGCAGAGCUCAACACAGCGUGGCAAAGUGGCUGUGGCUAGACUGCCUCUCUGGAUUCCUCGCCACUCAGCAGGGCAUCUCUGAGAGAAAUGCC the self-cleavage was 1.53. In the case of UACGUAGGUGGUUCUCCCCUGAUAGUGCUAAAGGGGCCUGGAAAUUUGGACUGGGCAGAGCUCAACACAGCGUGGCAAAGUGGCUGUGGCUAGACUGCCUCUCUGGAUUCCUCGUCACUCAGCAGGGCAUCUCUGAGAGAAAUGCC, the self-cleavage is reported as 0.68. UACGUAGGUGGUUUUCCCCUGAUAGUGCUAAGGGGGCCUGGAAGUUUGGACUGGGCAGAGCUCAACACAGAGUGGCGAAGUGGCUGUGGCUUGACUGCCUCUCUGGACUCCUCGUCACUCAGCAGGGCAUCUCUGAGAGAAAAGCC showed a self-cleavage of 0.6. UACGUAGGUGGUUUUCCCCUGAUAGUGCUAAGGGGGCCUGGAAGAUUGGACUGGGCAGAGCUCAACACUGCGUGGCAAAGUGGCUGUGGCUAGACUGCCUCUCUGGGUUCCUCGUCACUCAGCAGGGCAUCUCUGAGAGAAAUGCC showed a self-cleavage of 0.03. UACGCAGGUGGUUUUCCCCUGAUAGUGCUAAGGGGGCCUGGAAGUUUGGACUGGGCAGGGCUCAACACAGCGUGGCAAAGUGGCUGUGGCUAGACUGCCUCUCUGGAUUCCUCGUCACUCAGCAGGGCAUCUCCGAGAGAAAUGCC showed a self-cleavage of 0.29. With UACGUAGGUGGUUUUCCCCUGAUAGUGCUGGGGGGGCCUGGAAGUUUGGACUGGGCAGAGCUCAACUCAGCGUGGCAAAGUGGCUGUGGCUAGACUGCCUCUCUGGAUUCCUCGUCACUCAGCAGGGCAUCUCUGAGAGAAAUGCC the self-cleavage was 0. Variant CACGUAGAUGGUUUUCCCCUGAUAGUGCUAAGGGGGCCUGGAAGUUUGGACUGGGCAGAGCUCAACACAGCGUGGCAAAGUGGCUGUGGCUAGACUGCCUCUCUGGAUUCCUCGUCGCUCAGCAGGGCAUCUCUGAGAGAAAUGCC has a self-cleavage of 0.72. In the case of UACGUAGGUGGUUUUCCCCUGCUAGUGCUAAGGGGGCCUGGAAGUUUGGACUGGGCAGAGCUCAACACAGCGUGGCGAAGUGGCUGUGGCUAGACUGCCUCUCUGGAUUCCUCGUCACUUAGCAGGGCAUCUCUGAGAGAAAUGCC, the self-cleavage is reported as 1.99. UACGUAGGUGGUUUCCCCUCGAUAGUGCUAAGGGGGCCUGGAAGUUUGGACUGGGCAGAGCUCAACACAGCGUGGCAAAGUGGCUGUGGCUAGACUGCCUCCCUGGAUUCCUCGUCACUCAGCAGGGGAUCUCUGAGAGAAAUGCC showed a self-cleavage of 1.42. Work on UACGCAGGUGGUUUUCCCCUGAUAGUGCUAAGGGGGCCUGGAAGUUUGGACUGGGCAGAGCUCAACACAGCGUGGCAAAGUGGCUGUGGCUAGACUGCCUCUCUGGAUUCCUCGACACUCAGCAGAGCAUCUCUGAGAGAGAUGCC yielded a self-cleavage of 1.27. For UACGUAGGUGGUUUUCCCCUGAUAGUGCUAAGGGGGCCCGGGAGUUUGGACUGGGCAGAGCUCAACACAGCGUGGCAAAGUGGCCGUGGCUAGACUGCCUCUCUGGAUUCCUCGUCACUCAGCAGGGCAUCUCUGAGAGAAAUGCC, the self-cleavage was 0. UACGUAGGUGGUUUUCCCCUGAUAGUACUAAGGGGGCCUGGAAGUUUGGACUGGGCAGGGCUCAACACAGCGUGGCAAAGUGGCUGUGGCUAGACUGCCUCUCUGGAUUCCUCGUCACUCAGAAGGGCAUCUCUGAGAGAAAUGCC gave a self-cleavage of 0.1. Work on UACGUAGGUGGUUUUCCCCUGAUAGUGCUAAGGGGGCCAGGAAGUUUGGACUGGGCAGAGCUCAACACAGCGUGGCAAAGUGGCUGUGGCUAGACUGCCUCUCCGGAUUCCUCGUCACUCAGCAGGGCAUCUCUGAGAGUAAUGCC yielded a self-cleavage of 1.76. For UACGUAGGUGGUUUUCCCCUGAUAGUGCUGAGGGGGCCUGGAAGUUUGGACUGGGCAGAGCUCAACACAGCGCGGCAAAGUGGCUGUGGCUAGACAGCCUCUCUGGAUUCCUCGUCACUCAGCAGGGCAUCUCUGAGAGAAAUGCC, the self-cleavage was 0.1. UACGUAGGUGGUUUUCCCCUGAUAGUGCUAAGGGGGCCCGGAAGUUUGGACUGGGCAGAGCCCAACACAGCGUGGCAAAGUGGCUGUGGCUAGACUGCCUCUCUGGAUUCCUCGUCACUCAGCAGGGCAUCUCCGAGAGAAAUGCC gave a self-cleavage of 0.11. With UACGUAGGUGGUUUUCCCCUGAUAGUGCCAAGGGGGCCAGGAAGUUUGGACUGGGCUGAGCUCAACACAGCGUGGCAAAGUGGCUGUGGCUAGACUGCCUCUCUGGAUUCCUCGUCACUCAGCAGGGCAUCUCUGAGAGAAAUGCC the self-cleavage was 1.02. Variant UACGUAGGUGGUUUUCCCCUGGUAGUGCUAAGGGAGCCUGGAAGUUUGGACUGGGCGGAGCUCAACACAGCGUGGCAAAGUGGCAGUGGCUAGACUGCCUCUCUGGAUUCCUCGCCACUCAGCAGGGCAUCUCUGUGAGAUAUGCC has a self-cleavage of 0. UACGUAGGUGGUAUUCCCCUGAUAGUGCUAAGGGGGCCUGGGAGUUUGGACUGGGCAGAGCUCAACACAGCGUGGCAAAGUGGCUGUGGCUAGACUGGCUCUCUGGAUUCCUCGUCACUCAGCAGGGCAUCUCUGAGAGAAAUGCC showed a self-cleavage of 0.1. With UACGUAGCUGGUUUUCCCCUGAUAGUGCUAAGGGGGCCUGGAAGUUUGGACUGGGCAGAGCUCAACACAGCGUGGCAAAGUGGCUGUGGCUAGACUGCCUCUCUGGAAUCCUCGUCACUCAGCAGGGCAUCUCUGAGGGAAAUGCC the self-cleavage was 1.5. Work on UACGUAGGAGGUUUUCCCUUGAUAGUGCUAAGGGGGCCUGGAAGUUUGGACUGGGCAGAGCUCAACACAGCGUGGCAAAGUGGCUGUGGCUAGACUGCCUCUCUGGAUUCCUCGUCACUCAGCAGGGCAUCUCUGAGAGGAAUGCC yielded a self-cleavage of 1.02. UACGUAGGUGGUUUUCCCCUGAUAGUGCUAAGGGGGCCUGGAAGUUUGGACUGGGCAGAGCUCGACACAGCGUGGCAAAGUGGCUGUGGCUAGACUGCCUCUCUGGAUUCCUCGUCACUCAGCUGGGCAUCUCUGAGAGAGAUGCC gave a self-cleavage of 0.27. For UACGUAGGUGGUUUUCCCCUGAUAGUGCUAAGGGGGCCUGGGAGUUUGGACUGGGCGGAGCUCAACACAGCGUGGCAAAGUGGCUGUGGCUAGACUGCCUCUCUGGAUUCCUCGUCACUCAGCAGGGCAUCUCUGAGAGGAAUGCU, the self-cleavage was 0.69. Variant UACGUAGGUGGUUUUCCCCUGGUAGUGCUAAGGGGGCCUGGAAGUUUGGACUGGGCAGAGCUCGACACAGCGUGGCAAAGAGGCUGUGGCUAGACUGCCUCUCUGGAUUCCUCGCCACUCAGCAGGGCAUCUCUGAGAGAAAUGCC has a self-cleavage of 0.54. UACGUAGGUGGUUUUCCCCUGAUAGUGCUAAGGGGGCCCGGAAGUUUGGACUGGGCAGAGCUCAUCACAGCGUGGCAAAGUGGCUGUGGCUAGACUGCCUCUCUGGAUUCCUCGUCACCCAGCAGGGCAUCUCUGAGAGAAAUGCC gave a self-cleavage of 0.16. With UACGUAGGUGGUUUUCCCCUGAUAGUGCUAAGGGGGCCUGGAAGUUUGGACUGGGCAGAGCUCAACACAGCGUGGCAAGGUGGCUGUGGCUAGACCGCCUCUCUGGAUUCUUCGCCACUCAGCAGGGCAUCUCUGAGAGAAAUGCC the self-cleavage was 0.14. UACGUAGGUGGUUUUCCCCUGAUAGUGCUAAGGGGGCCUGGAAGUUUGGACUGGGCAGAGCUCAACACAGCGUGGCAAAGUGGCUGUGGCUAGACUGCCUCUCUGGAUUCCCCGUCACUCAGCGGGGCAUCUCUGAGAGAAAAGCC gave a self-cleavage of 1.34. With UACGUAGGUGGUCUUCCCUUGAUAGUGCUAAGGGGGCCUGGAAGUUUGGACUGGGCUGAGCCCGACACAGCGUGGCAAAGUGGCUGUGACUGGACUGCCUCUCUUGAUUCCUCGUCACUCAGCAGGGCAUCUCUGAGAGAAAUGCC the self-cleavage was 0. Work on UAUGUAGGUGGUCUUCCCCUGAUAGUGCUAAGGGGGCCUGGAAGUUUGGACUGGGCAGAGCUCAACACAGCGUGGCAAAGAGGCUGCGGCUAGACUGCCUCUCUGGAUUCCUCGUCACUCAGCAGGGCAUCUCUGAGAGAAAUGCC yielded a self-cleavage of 0.25. For UAUGUAGGUGGUCUUCCCCUGAUAGUGCUAAGGGGGCCUGGAGGUUUGGACUGGGCAGAGCUCAACACAGCGUGGCAAAGUGGCUGUGGCUAGACUGCCUCUCUGGAUUCCUCGUCGCUCAGCAGGGCAUCUCUGAGAGAAAUGCC, the self-cleavage was 0.97. Work on UGCGUAGGUGGUUUUCCCCUGAUAGUGCUAAGGGGGCCUGGAGGUUUGGACUGGGCAGAGCUCAACACAGCGUGGCAAAGUGGCUGUGGCUAGACUGCCUCUCUGGAUUCCUCGUCACUCAGCAGGGCAUCUCUGAGAGGAAUGCC yielded a self-cleavage of 0. Work on UACGUAGGUGGUUUUCCCCUGAUAGAGCUAAGGGGGCCUGGAAGUAUGGACUGGGCAGGGCUCAACACAGCGUGGCAAAGUGGCUGUGGCUAGACUGCCUCUCUGGAUUCCUCGUCACUCAGCAGGGCAUCUCGGAGAGAAAUGCC yielded a self-cleavage of 0.05. Work on UACGUAGGUGGUUUUCCCCAGAUAGUGCUAAGGGGGCCUGGAAGUUUGGACUGGGCAGAGCUCAACACAGCGUGGCAAAGUGGCCGUGGCUAGACUGCCUCACUGGAUUCCUCGUCACUCAGCAGGGCAUCUCUGAGAGAAAUGCC yielded a self-cleavage of 0.19. In the case of UGCGUAGGUGGUUUUCCCCUGAUAGUGCUAAGGGGGCCUGGAAGUUUGGACUGGGCGGAGCUCAACACAGCGUGGUAAAGUGGCUGUGGCUAGACUGCCCCUCUGGAUUCCUCGUCACUCAGCAGGGCAUCUCUGAGAGAAAAGCC, the self-cleavage is reported as 1.02. Work on UACGUAGGUGGUUUUCCCCUGAUAGUGCUAAGGGGGCCUGGAAGUUUGGACUGGGCAGAGCUCAACACAGCGUGGCAAAGCAGCUGUGGCUAGACUGCCUCUCUGGAUUCCUCGCCACACAGCAGGGCAUCUCUGAGAGAAAUGCC yielded a self-cleavage of 1.71. UACGUAGGUGGUUUUCCCCUGAUAGUGCUAAGGGGGCCUGGAAGCAUGGACUGGGCAGGGCUCAACACAGCGUAGCAAAGUGGCUGUGGCUAGACUGCCUCUCUGGAUUCCUCGUCACUCAGCAGGGCAUCUCUGAGAGAAAUGCC gave a self-cleavage of 0.03. UACGUAGGUAGUUCUCCUCUGAUAGUGCUAAGGGGGCCUGGAAGUUUGGACUGGGCAGAGCUCAACACAGCGUGGCAAAGUGGCUGUGGCUAGACUGCCUCUCUGGAUUCCUCGUCACUCAGCAGGGCAUCUCUGAGAGAAAUGCC showed a self-cleavage of 0.7.
